Data from ChEMBL document CHEMBL4888484, “Replenishing the malaria drug discovery pipeline: Screening and hit evaluation of the MMV Hit Generation Library 1 (HGL1) against asexual blood stage Plasmodium falciparum ,using a nano luciferase reporter read-out” (2022).
Among all 150,000 compounds or so, about 540 (0.36%) showed an effect of 50% or more. The list shows a part of the results.

Tested on: Plasmodium falciparum
Experiment: Primary screen in NF54 nanoGlo assay, in single point, at 2uM, 72h; a lower Z score goes with more inhibition
Type: functional, Erythrocyte
Settings: timepoint 72 hour

Compound | % Inhibition [%] | Z score | % Inhibition (2 µM) [%] | Z score (2 µM)
Cc1cc(-c2csc(NC(=O)C3CCN(C4CC4)CC3)n2)c(C)o1 | -3 | 0.44 | – | –
CN1CCC(CNC(=O)c2cccc(Cn3ccnc3)c2)CC1 | -11 | 2.12 | – | –
CCc1nccn1CC1(CNC(=O)c2cnc[nH]2)CC1 | -13 | 1.73 | – | –
O=C1C2CCCN2C(=O)N1C1CCN(c2ccc(Cl)c(F)c2)C1 (stereo unspecified) | -2 | 0.31 | – | –
CC(C)C1OCCC1C(=O)N(Cc1ccccc1F)c1cn[nH]c1 (stereo unspecified) | -3 | 0.57 | – | –
CC(C)(C)C(=O)COc1ccc(Cl)cc1C(N)=O | -13 | 2.54 | – | –
Cc1ccc2c(c1N)[C@@H](C)CC21CCCCC1 | -1 | 0.06 | – | –
O=C(Nc1c(-c2ccc(F)cc2)nc2c(Cl)cc(C(F)(F)F)cn12)c1ccccc1 | -9 | 1.25 | – | –
Cc1ccccc1[C@H](CC(=O)O)NC(=O)C(F)(F)F | 31 | -1.08 | – | –
COc1cccc(-n2c(C)cc(C(=O)Cn3cnc4ccccc4c3=O)c2C)c1 | -7 | 0.76 | – | –
CCOc1ccc(S(=O)(=O)N(C)c2ccc(OC(=O)CCc3c(C)noc3C)cc2)cc1 | -2 | 0.34 | – | –
NC(=O)[C@H]1CCCN1C(=O)N[C@@H]1c2ccccc2C[C@H]1O | -9 | 1.87 | – | –
Cc1n[nH]c(C)c1CCN(C)C(=O)c1ccc2c(c1)C[C@H](C)O2 | 0 | -0.05 | – | –
COc1ccccc1C1(CNC(=O)C(=O)NC2CC2)CCOCC1 | -6 | 1.04 | – | –
CCN(C(=O)COc1cccc(C)c1C)[C@H](c1ccc(C)cc1)c1c[nH]c2ccccc12 | 1 | -0.09 | – | –
CC1CN(Cc2cc(-c3cnn(C)c3)no2)C(c2ccccc2)CO1 (stereo unspecified) | -2 | 0.36 | – | –
COc1cccc(CN2CCN(c3nc[nH]n3)CC2)c1C | -8 | 1.28 | – | –
O=C(C[C@H]1C(=O)OCCN1C1CCCCC1)Nc1ccccc1 | -14 | 1.63 | – | –
c1ccc(-c2noc(-c3nc(-c4ccccn4)no3)n2)cc1 | -21 | 1.94 | – | –
Cc1cnc(C(=O)N2CCC3(CCC(=O)N(CCc4cccnc4)C3)CC2)cn1 | -13 | 1.87 | – | –
CCOc1cc(N[C@H]2Cc3ccccc3NC2=O)ncn1 | -7 | 1.08 | – | –
O=C(CN1C(=O)C2CC=CCC2C1=O)N1CCN(S(=O)(=O)c2ccc3ccccc3c2)CC1 (stereo unspecified) | -7 | 1.11 | – | –

Compound | % Inhibition [%] | Z score | % Inhibition (2 µM) [%] | Z score (2 µM)
COc1cccc(C2C(NC(=O)c3ccoc3)CCN2C2CC2)c1 (stereo unspecified) | 38 | -5.09 | – | –
CN1[C@@H](c2ccccc2Cl)[C@@H](C(=O)NCc2ncc[nH]2)C[C@@]1(C)C(=O)O | -8 | 0.79 | – | –
COC1(CN[C@H](c2cccc(Cl)c2F)C2CC2)CCOCC1 | -12 | 1.21 | – | –
CCc1ccc(CCNC(=O)c2cnn3c2NCCC3)cc1 | 4 | -0.69 | – | –
CN(CCC(=O)NCc1cccs1)CCc1ccccn1 | -10 | 1.16 | – | –
CNS(=O)(=O)c1ccccc1N1CC(C)(OC)C1 | -18 | 2.58 | – | –
COCC(=O)N1CCC(N2C[C@H](Oc3ccccc3)[C@@H]2c2ccncc2)CC1 | -9 | 1.14 | – | –
COCCN(Cc1c(-c2ccccc2)noc1N1CCN(C)CC1)C(=O)C1CCCC1 | 0 | -0.03 | – | –
COc1ccc(-c2cc3ccccc3n2CC(O)CNCC2CCCO2)cc1 (stereo unspecified) | – | – | 1 | -3.58
O=C(COC[C@H]1CCCO1)Nc1ccns1 | -16 | 2.1 | – | –
CS(=O)(=O)c1ccc(-c2noc(-c3ccnnc3)n2)cc1 | -15 | 1.88 | – | –
CS(=O)(=O)N1CCC[C@H]1c1noc(CCC(=O)NC2CCCC2)n1 | -17 | 1.9 | – | –
CCCC1C(=O)CC(C(C)C)C(C#N)(C#N)C1(C#N)C#N (stereo unspecified) | -7 | 0.86 | – | –
CN(CC1(O)CCC1)C(=O)C(C)(C)N1CCOCC1 | 1 | -0.11 | – | –
CCCN(CCOC)Cc1cccs1 | -9 | 1.01 | – | –
Cc1cccc(CC(=O)OCc2cc(-c3ccncc3)n[nH]2)c1 | 10 | -1.53 | – | –
Cc1ccccc1-c1ncc(-c2cn(C[C@H]3CCS(=O)(=O)C3)nn2)s1 | -15 | 2.01 | – | –
CS(=O)(=O)C1(c2nc(-c3cccc(Cl)c3)no2)CCOCC1 | -4 | 0.8 | – | –
C[C@]1(c2ccc(Br)cc2)CC(=O)N(CC(=O)Nc2ccc(F)cc2Cl)C1=O | 0 | -0.04 | – | –
O=C(c1ccoc1C1CC1)N1CC[C@H](c2ccc3cccnc3n2)C1 | 8 | -1.08 | – | –
CN(CC(N)=O)Cc1ccc(Br)cc1F | -11 | 1.6 | – | –
